Results as given in PubChem BioAssay (NCATS).
“And” between values parts separate entries of the source, which are not always exact repeats. Equal entries are not always repeated. Inconclusive means that the source gave no clear call. Such entries were picked first, then a sample of the others. Where the call is inconclusive, the potency comes from a doubtful curve fit. The source made the active and inactive calls. Calls come from the whole dose curve; as a rule, active = well fitted curve in the direction sought with a large enough effect; inconclusive = small, poorly fitted or top-dose-only effect, or another doubt; inactive = no such curve, though single readings can be large; an effect the other way counts as inactive or inconclusive. Where a SMILES comes first, the peptide text is derived from it. [ ]: non-standard residue; d: D form. The star is where a group is joined. Nva = CCC[C@H](N)C(=O)O; Cbz = O=C(OCc1ccccc1)*

Legend:
[1] = qHTS of pediatric cancer cell lines to identify multiple opportunities for drug repurposing: Primary screen for SJ-GBM2 cells (AID 1347091)
Outline: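 Cell viability, CellTiter-Glo luminescence; 500-1,000 cells/well, 8- or 11-point titration, 48 h compound exposure at 37 degrees C, 5% CO2. Controls: DMSO neutral, bortezomib 2.3 µM final as positive.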

[2] = qHTS of pediatric cancer cell lines to identify multiple opportunities for drug repurposing: Primary screen for BT-37 cells (AID 1347094)
Outline: (§1)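 500-1,000 cells/well; 5 h pre-incubation 37 °C/5% CO2; compound pinned; 48 h; CellTiter-Glo, 15 min RT; luminescence. MIPE 11-pt from 0.78 nM, NPC 8-pt from 0.59 nM final. Bortezomib 2.3 µM final as positive control.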

[3] = qHTS of pediatric cancer cell lines to identify multiple opportunities for drug repurposing: Primary screen for NB-EBc1 cells (AID 1347095)
Outline: as §1

[4] = qHTS of pediatric cancer cell lines to identify multiple opportunities for drug repurposing: Primary screen for U-2 OS cells (AID 1347096); note: nearly all actives have a fitted effect of over 50% in size
Outline: (§2)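 Cells (500-1,000/well) rested 5 h, then received compounds for 48 h; metabolically active cells were measured by CellTiter-Glo luminescence. Final concentrations spanned up to 46 µM (MIPE, 11-point) or 0.59 nM-46 µM (NPC, 8-point) in primary screens, 11-point in follow-ups.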

[5] = qHTS of pediatric cancer cell lines to identify multiple opportunities for drug repurposing: Primary screen for Saos-2 cells (AID 1347097); note: nearly all actives have a fitted effect of over 40% in size
Outline: as §1

[6] = qHTS of pediatric cancer cell lines to identify multiple opportunities for drug repurposing: Primary screen for OHS-50 cells (AID 1347103); note: nearly all actives have a fitted effect of over 40% in size
Outline: as §2

[7] = qHTS of pediatric cancer cell lines to identify multiple opportunities for drug repurposing: Primary screen for control Hh wild type fibroblast cells (AID 1347106); note: nearly all actives have a fitted effect of over 55% in size
Outline: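 Viability after 48 h compound treatment at 37C, 500-1,000 cells/well, read as ATP luminescence with CellTiter-Glo. Primary screens used 11-point (MIPE, 0.78 nM-46 µM) or 8-point (NPC, 0.59 nM-46 µM) final concentrations; follow-up screens used 11-point dilutions.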

[8] = qHTS of pediatric cancer cell lines to identify multiple opportunities for drug repurposing: Primary screen for Rh30 cells (AID 1347107); note: nearly all actives have a fitted effect of over 75% in size
Outline: as §2

[9] = qHTS of pediatric cancer cell lines to identify multiple opportunities for drug repurposing: Confirmatory screen for NB1643 cells (AID 1347109); conditions: NB1643 neuroblastoma cell viability; activity change, negative = cytotoxic: at 45.9 µM (top of the series); note: nearly all actives have a fitted effect of over 45% in size
Outline: as §2

[10] = qHTS of pediatric cancer cell lines to identify multiple opportunities for drug repurposing: Primary screen for SK-N-MC cells (AID 1347093); conditions: SK-N-MC viability, CellTiter-Glo luminescence, 48 h; activity change, negative = cytotoxic: at 46 µM (top of the series)
Outline: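 Metabolically active cells were quantified by ATP-dependent luminescence (CellTiter-Glo, 15 min at room temperature) following 48 h treatment. Cells had been plated at 500-1,000 per well and settled for 5 h beforehand.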

[11] = qHTS of pediatric cancer cell lines to identify multiple opportunities for drug repurposing: Primary screen for SK-N-SH cells (AID 1347098); note: nearly all actives have a fitted effect of over 65% in size
Outline: as §2

[12] = qHTS of pediatric cancer cell lines to identify multiple opportunities for drug repurposing: Primary screen for Rh18 cells (AID 1347102); note: nearly all actives have a fitted effect of over 65% in size
Outline: as §2

[13] = qHTS of pediatric cancer cell lines to identify multiple opportunities for drug repurposing: Primary screen for Rh41 cells (AID 1347108); note: nearly all actives have a fitted effect of over 70% in size
Outline: as §1

[14] = qHTS of pediatric cancer cell lines to identify multiple opportunities for drug repurposing: Primary screen for LAN-5 cells (AID 1347100); conditions: LAN-5 neuroblastoma viability, CellTiter-Glo luminescence, 48 h; activity change, negative = cytotoxic: at 46 µM (top of the series)
Outline: as §2

[15] = qHTS of pediatric cancer cell lines to identify multiple opportunities for drug repurposing: Primary screen for NB1643 cells (AID 1347099); note: nearly all actives have a fitted effect of over 50% in size
Outline: as §1

[16] = qHTS of pediatric cancer cell lines to identify multiple opportunities for drug repurposing: Primary screen for RD cells (AID 1347104); note: nearly all actives have a fitted effect of over 55% in size
Outline: as §1

[17] = qHTS of pediatric cancer cell lines to identify multiple opportunities for drug repurposing: Primary screen for BT-12 cells (AID 1347101); note: nearly all actives have a fitted effect of over 25% in size
Outline: as §2

Measured: Potency
Potency is the fitted concentration of half-maximal effect; tags give direction and shape of the fitted curve.

CCC[C@@H](C=O)NC(=O)[C@H](CC(C)C)NC(=O)[C@H](CC(C)C)NC(=O)OCc1ccccc1 (Cbz-Leu-Leu-[Nva]-aldehyde)
active: [1] 0.296 µM | [2] 1.22 µM | [3] 0.372 µM | [4] 2.35 µM | [5] 1.18 µM | [6] 1.53 µM | [7] 5.26 µM | [8] 4.69 µM | [9] 1.65 µM

Cc1ccc(S(=O)(=O)NC(=O)NN2CC3CCCC3C2)cc1 (configuration not stated)
active: [5] 7.5 µM and 18.7 µM
inconclusive: [1] 33.2 µM [cytotoxic, single point] | [10] 37.2 µM [cytotoxic, single point] | [2] 30.6 µM [cytotoxic, single point] | [3] 23.5 µM [cytotoxic, single point] | [11] 24.1 µM [cytotoxic, partial curve, poor fit] | [12] 26.4 µM [cytotoxic, single point] | [13] 26.4 µM [cytotoxic, single point]

C1=CCOCc2cc(ccc2OCCN2CCCC2)Nc2nccc(n2)-c2cccc(c2)OCC1
active: [1] 3.72 µM | [2] 12.2 µM | [3] 7.43 µM | [14] 2.64 µM | [13] 5.9 µM
inconclusive: [10] 2.35 µM [cytotoxic, full curve, poor fit] | [7] 18.7 µM [cytotoxic, partial curve]

CC[C@]1(O)C[C@H]2CN(CCC3=c4ccccc4=N[C]3[C@@](C(=O)OC)(c3cc4c(cc3OC)N(C)[C@H]3[C@@](O)(C(N)=O)[C@H](O)[C@]5(CC)C=CCN6CC[C@]43[C@@H]65)C2)C1
active: [1] 0.001 µM | [2] 0.122 µM | [5] 0.148 µM | [16] 0.0332 µM
inconclusive: [4] 3.72 µM [cytotoxic, full curve] | [11] 0.136 µM [cytotoxic, full curve] | [15] 1.05 µM [cytotoxic, full curve] | [12] 0.148 µM [cytotoxic, full curve] | [7] 0.332 µM [cytotoxic, full curve] | [13] 0.105 µM [cytotoxic, full curve]

O=C(CC12CC3CC(CC(C3)C1)C2)Nc1cccc2nc(NCCNCCO)ccc12
inactive: [9]
active: [16] 33.2 µM
inconclusive: [1] 33.2 µM [cytotoxic, single point] | [3] 37.2 µM [cytotoxic, single point] | [5] 29.6 µM [cytotoxic, single point] | [14] 18.7 µM [cytotoxic, single point] | [17] 43.2 µM [cytotoxic, partial curve, poor fit] | [7] 4.69 µM [cytotoxic, full curve] | [8] 13.2 µM [cytotoxic, partial curve]

CN1CCN(c2ncc(-c3cc(Cl)cc(Cl)c3Cl)c(N)n2)CC1
inconclusive: [1] 11.8 µM [cytotoxic, full curve] | [3] 23.5 µM [cytotoxic, single point] | [5] 3.72 µM [cytotoxic, partial curve, poor fit] | [14] 3.32 µM [cytotoxic, full curve] | [16] 14.8 µM [cytotoxic, partial curve] | [9] 20.8 µM [cytotoxic, single point]
active: [11] 21.5 µM | [15] 16.6 µM | [17] 4.32 µM | [6] 3.85 µM

OC[C@H](Cc1ccccc1)Nc1nc(Oc2ccc3c(c2)CCC3)nc2c1ncn2Cc1ccc(-c2ccccc2)cc1
inactive: [4] | [9]
inconclusive: [1] 13.2 µM [cytotoxic, partial curve] | [2] 17.2 µM [cytotoxic, partial curve, poor fit] | [3] 11.8 µM [cytotoxic, full curve] | [5] 9.35 µM [cytotoxic, partial curve] | [17] 21.7 µM [cytotoxic, partial curve, poor fit] | [6] 1.09 µM [cytotoxic, partial curve, poor fit] | [16] 5.9 µM [cytotoxic, full curve]
